The source of these data is PubChem BioAssay AID1645887 (National Center for Advancing Translational Sciences (NCATS), 2021).

“And” between values parts separate entries of the source, which are not always exact repeats. Equal values may be shown once. Out of some 16,000 compounds screened, about 40 (0.2%) were called active. Roughly 1% stayed inconclusive and do not appear here. The call rests on the fitted dose curve; in most records, active means well fitted activation curve with a large enough effect; inconclusive means small, poorly fitted or top-dose-only effect, or another doubt; inactive means no such curve, though single readings can be large or run the other way. This is one part of the list.
On the % scale 0 is the no-effect control and ±100 the full control effect.

The target in the test is Rap guanine nucleotide exchange factor 4 (Homo sapiens) (UniProt Q8WZA2). Nature of the test: Validation qHTS for agonist of cAMP-regulated guanine nucleotide exchange factor 4 (EPAC2).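 Further: exchange makes BODIPY-GDP fluorescence drop when released from Rap1B; series mostly up to about 150 µM.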 To be noted: EPAC2 Rap1B BODIPY-GDP exchange, fluorescence; activation: stronger effect = higher value. The gist of the method: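 Signal normalized against 6.5 mM cAMP as agonist control. Mix of EPAC2 (100 nM), RAP1B-BODIPY-GDP (250 nM) and GDP (50 uM) was read kinetically at 480/540 nm, every 5 min over 30 min, after 5 min room-temperature incubation with compound.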
UniProt Q8WZA2, sequence (Q8WZA2 whole entry, looked up): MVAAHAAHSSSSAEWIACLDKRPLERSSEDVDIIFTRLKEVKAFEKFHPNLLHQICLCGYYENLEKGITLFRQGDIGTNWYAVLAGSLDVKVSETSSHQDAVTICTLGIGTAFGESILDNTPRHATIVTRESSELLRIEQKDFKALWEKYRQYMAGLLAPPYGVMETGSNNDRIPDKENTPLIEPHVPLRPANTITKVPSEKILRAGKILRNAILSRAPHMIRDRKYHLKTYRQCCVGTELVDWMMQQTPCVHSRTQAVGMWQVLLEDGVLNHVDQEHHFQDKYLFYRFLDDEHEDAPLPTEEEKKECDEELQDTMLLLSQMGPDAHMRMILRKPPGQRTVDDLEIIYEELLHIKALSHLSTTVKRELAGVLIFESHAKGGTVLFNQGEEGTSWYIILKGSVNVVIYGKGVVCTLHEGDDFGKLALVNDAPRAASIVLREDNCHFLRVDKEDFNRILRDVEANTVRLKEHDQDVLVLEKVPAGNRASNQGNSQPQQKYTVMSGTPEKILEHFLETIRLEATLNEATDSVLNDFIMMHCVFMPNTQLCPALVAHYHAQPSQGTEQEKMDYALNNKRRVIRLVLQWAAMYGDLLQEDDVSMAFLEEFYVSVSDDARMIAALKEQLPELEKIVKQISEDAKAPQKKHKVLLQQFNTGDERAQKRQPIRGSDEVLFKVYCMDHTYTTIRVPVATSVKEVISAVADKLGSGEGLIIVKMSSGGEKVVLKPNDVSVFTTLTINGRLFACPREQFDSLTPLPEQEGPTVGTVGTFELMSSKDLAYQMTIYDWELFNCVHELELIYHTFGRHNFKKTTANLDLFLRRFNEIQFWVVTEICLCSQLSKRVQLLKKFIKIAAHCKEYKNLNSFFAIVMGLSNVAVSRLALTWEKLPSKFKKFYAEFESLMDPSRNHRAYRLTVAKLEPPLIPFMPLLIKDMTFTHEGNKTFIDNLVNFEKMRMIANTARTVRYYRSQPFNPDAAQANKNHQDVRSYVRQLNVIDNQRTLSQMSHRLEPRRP
As for `N#Cc1ccc(CN2CCCC3(CCN(C(=O)c4cnccn4)CC3)C2)cc1`, the activation is inactive: -16.4%.

On to `CC(C(=O)O)c1cccc(C(=O)c2ccccc2)c1` (configuration not stated), for which the activation is inactive: 3.13% and inactive: 9.94% and inactive: -26.6%.

As to `CC1(C)OC2C(CO)OC(n3cnc4c(=O)[nH]cnc43)C2O1` (configuration not stated), the activation was inactive: -17.2%. Under `CCCCCCCCCCCC(=O)OCC(O)CO` (configuration not stated) stands inactive: -76%; under `Nc1nc(N)c2nc(CNc3ccc(C(=O)N[C@@H](CCC(=O)O)C(=O)O)cc3)cnc2n1`, inactive: -9.87%; under `COc1cc(=O)n2c(c1C(=O)N(C)Cc1nonc1C)CCN(Cc1ccc(F)cc1)CC2`, inactive: -6.84%. On to `CC(=O)Nc1ccc(/C=N/NC(N)=S)cc1`, for which the activation was inactive: -26.2% and inactive: 5.8%. Regarding `COC(=O)N1CCC2(CC1)CCN(C(c1ccccc1)c1ccccc1)CC2`, the activation is inactive: 0.719%. With `O=C(O)Cc1ccc(OCCNC[C@H](O)c2ccccc2)cc1`, the activation was inactive: -0.721%. As for `COc1ccccc1N1CCN(c2nc(CNC(=O)c3cc(C)oc3C)nc3ccccc23)CC1`, the activation was inactive: -3.22%.

As to `COc1ccccc1-c1cncnc1NCc1ccccc1`, the activation was inactive: -2.03%. In the case of `O=C(NCC1Cc2cccc(-c3ncccn3)c2O1)c1cccc(-c2ccccc2F)c1` (configuration not stated), the activation was inactive: 4.82%.

With `CN(C)c1nc(-c2cccc(C#N)c2)nc2ccccc12`, the activation is inactive: -2.4%. Consider `C[C@@H](N)C1CCC(C(=O)Nc2ccncc2)CC1` (some centres not stated), for which the activation was inactive: -3.91% and inactive: 13.2% and inactive: 0.418%. Under `NCC(O)(CS(=O)(=O)O)c1ccc(Cl)cc1` (configuration not stated) stands inactive: -33.9%.

Turning to `CC[C@H](NC(=O)c1c(C)c(-c2ccccc2)nc2ccccc12)c1ccccc1`, the activation was inactive: 4.43% and inactive: -8.45% and inactive: -47.6%.

With `CCOC(=O)c1ncn2c1CN(C)C(=O)c1cc(F)ccc1-2`, the activation was inactive: -0.286% and inactive: -17.7% and inactive: -12.1%. Under `O=NN(CCCl)C(=O)NCCCl` stands inactive: -5.2% and inactive: 1.4% and inactive: -13.7%; under `CC(C)(S)C(=O)N[C@@H](CS)C(=O)O`, inactive: -18% and inactive: 4.24%; under `COc1ncc2nc(C)c(=O)n(Cc3cccs3)c2n1`, inactive: -6.26%. For the compound `COc1cc(=O)n2c(c1C(=O)NCc1nonc1C)CCN(C(=O)c1cccc(C)c1C)CC2`, the activation is inactive: 5.01%. For `COc1ccc(-c2oc3ccc(C)cc3c(=O)c2O)cc1OC`, the activation was inactive: -7.8%. As for `CC(=O)OC1C[C@]2(C)[C@@H](CC(O)C3[C@]4(C)CCC(O)C(C)[C@@H]4CC[C@]32C)/C1=C(/CCC=C(C)C)C(=O)O` (some centres not stated), the activation is inactive: -17.1%. With `CCNc1ncc2nc(-c3cn(C)c4ccccc34)c(=O)n(Cc3ccc(F)cc3)c2n1`, the activation is inactive: -13.2%. For the compound `Cc1cc(C)c(NC(=O)CN(CC(=O)O)CC(=O)O)c(C)c1Br`, the activation is inactive: -0.749%. For `O=C(c1csnn1)N1CCC2(CC1)CN(c1ccccc1)C2`, the activation was inactive: -10.6%. With `COc1ccc(-c2c(-c3ccc4c(c3)OCO4)noc2C)cn1`, the activation is inactive: -22.9%.

In the case of `CO/S(=N\S(=O)(=O)c1ccc(Cl)cc1)c1ccc([N+](=O)[O-])cc1` (configuration not stated), the activation was inactive: 5.91%.

For the compound `CC1=C(/C=C/C(C)=C/C=C/C(C)=C/C=C/C=C(C)/C=C/C=C(C)/C=C/C2=C(C)C(=O)CCC2(C)C)C(C)(C)CCC1=O`, the activation is inactive: -24.4%. With `C=C1CC[C@H](O)C/C1=C/C=C1\CCC[C@]2(C)C([C@H](C)CCCC(C)(C)O)CC[C@@H]12` (some centres not stated), the activation is inactive: 2.4% and inactive: 3.18%. With `CCC1CN(CCNC(=O)c2ccccc2-n2cccn2)Cc2cc(OC)ccc2O1` (configuration not stated), the activation was inactive: -6.64%. For the compound `Cc1ccc(CN2C[C@@H](Sc3nc(C)cc(C)n3)C[C@H]2C(=O)N2CCN(c3ccccc3F)CC2)cc1`, the activation was inactive: -9.71%. Turning to `COc1ccc(CN2[C@@H](CC(=O)O)c3cc(C(F)(F)F)ccc3S2(=O)=O)cc1`, the activation is inactive: -8.71%. Regarding `CO[C@H]1C=CO[C@@]2(C)Oc3c(C)c(O)c4c(O)c(cc(O)c4c3C2=O)NC(=O)/C(C)=C\C=C/[C@H](C)[C@H](O)[C@@H](C)[C@@H](O)[C@@H](C)[C@H](OC(C)=O)[C@@H]1C`, the activation was inactive: -0.0671%. Turning to `CCOC(=O)C1CCCCN1Cc1nc(N2CCN(C(C)=O)CC2)c2ccccc2n1` (configuration not stated), the activation is inactive: 5.23%. Under `CC1(C)CC23C(=O)CCC(O)C2(C)CCC13` (configuration not stated) stands inactive: -8.77%; under `Cc1nc(C)c(CC(=O)N2CCOc3ccc(CN4CCN(c5ccccn5)CC4)cc3C2)s1`, inactive: -8.44%.

As to `Cc1cc(OCCOCC[N+](C)(C)Cc2ccccc2)ccc1C(C)(C)CC(C)(C)C`, the activation was inactive: -23.6%. For the compound `COc1cccc(-c2ccc3ncnc(NCCNC(C)=O)c3c2)c1`, the activation was inactive: -3.87%. Turning to `Cc1nc2cnc(Nc3ccccc3)nc2n(CCc2ccccc2)c1=O`, the activation is inactive: 0.853%. As to `COc1cc2c(cc1OC)C(c1ccccc1)=NCC2`, the activation was inactive: -3.15%. For `Nc1ccnc2c1ncn2[C@@H]1O[C@H](CO)[C@@H](O)[C@H]1O`, the activation is inactive: 4.96%. In the case of `COc1cc(/C=C/CN2CCOc3ccc(C(O)c4cccnc4)cc3C2)ccc1O` (configuration not stated), the activation was inactive: -6.15%. `COc1ccccc1-c1cc(Nc2ccn[nH]2)ncn1`: the activation is inactive: -16.4%. Next, `COc1ccc2c(c1)CCc1cnc(-n3ncc(C(=O)N(C)CCc4ccccn4)c3C)nc1-2`: inactive: -7.59%; `N#Cc1cccc(-c2ccc3ncnc(NCc4cccs4)c3c2)c1`: inactive: -7.54%; `COc1cc(=O)n2c(c1C(=O)N(C)Cc1ccsc1)CCN(Cc1c(C)nc3sccn13)CC2`: inactive: -1.8%. Under `CCOc1cc(CC(=O)N[C@@H](CC(C)C)c2ccccc2N2CCCCC2)ccc1C(=O)O` stands inactive: -1.46%; under `COc1cc2c(cc1OC)C1(O)C(=O)c3ccc(O)c(C(=O)O)c3OC1CO2` (configuration not stated), inactive: -15%.

As for `COc1ccc(C(=O)NCC2Cc3cc(C)cc(-c4cc(C(C)=O)ccc4F)c3O2)c(OC)c1OC` (configuration not stated), the activation is inactive: -16.9%.

As for `c1cncc(-c2nc(NCCN3CCOCC3)c3ccccc3n2)c1`, the activation is inactive: -19.1%. On to `CC1(O)/C=C\C=C(\CO)C2CC(C)(C)C2(O)CC1` (configuration not stated), for which the activation is inactive: -14.6%. In the case of `CCC(C(N)=O)c1ccccc1` (configuration not stated), the activation is inactive: 3.55%. Under `O=c1c(-c2ccc(Cl)cc2)nc2cnc(N3CCNCC3)nc2n1-c1ccccc1` stands inactive: -9.17%; under `CC(=O)N[C@@H](C)C(=O)NCC1Cc2cccc(-c3ccccc3C(F)(F)F)c2O1` (some centres not stated), inactive: -4.97%; under `CC(=O)OC1CC2C(C)(C)C=CC(=O)[C@@]2(C)C2CC[C@@]3(C)C(c4ccoc4)OC(=O)C4OC43[C@]12C` (some centres not stated), inactive: -30.8%. In the case of `CCNc1ncc2nc(-c3ccccc3)c(=O)n(-c3ccc(OC)cc3)c2n1`, the activation was inactive: -13%. For the compound `Cc1ccccc1C1(CC(=O)N2CCCCC2c2cccnc2)CC(=O)N(C2CCCC2)C1=O` (configuration not stated), the activation is inactive: -17.2%. Under `C=CCCCCCCCCCCCC(O)CC(O)COC(C)=O` (configuration not stated) (tested in a mixture with another compound) stands inactive: -51%; under `O=C(O)c1ccc(OCCn2ccnc2)cc1`, inactive: -23.5%; under `COc1ccc(CNC(=O)C[C@H]2C(=O)N(Cc3ccc(OC)cc3)C[C@@H]2Cc2ccccc2)cc1`, inactive: -16.8%.

Take `NC(CCCP(=O)(O)O)C(=O)O` (configuration not stated): the activation is inactive: 11.7%. As for `O=C(O)COc1ccc(CCNS(=O)(=O)c2ccccc2)s1`, the activation was inactive: 2.15%. On to `CCCS(=O)(=O)NCc1c(C)ncc2c1CCN(C(=O)c1ccc(F)c(F)c1)C2`, for which the activation is inactive: -5.94%. Regarding `COc1cc(-c2cc(C)c3cccc(OC)c3n2)cc2c1OCCN(C(=O)CCn1ccc(C)n1)C2`, the activation was inactive: -12.7%. As to `COCCn1c(=O)cnc2cnc(OCc3ccccc3)nc21`, the activation was inactive: -12.6%.

As to `O=c1c(-c2cccs2)nc2cncnc2n1-c1ccccc1`, the activation is inactive: -19.8%. Take `C#C[C@]1(O)CC[C@H]2[C@@H]3CCc4cc(O)ccc4[C@H]3CC[C@@]21C`: the activation is inactive: -32.1%. `CCCCN(CCCC)CCC(O)c1cc2c(Cl)cc(Cl)cc2c2cc(C(F)(F)F)ccc12` (configuration not stated): the activation is inactive: -6.66%. For `[O]=[Bi][O]C(=O)[O][Bi]=[O]`, the activation was inactive: -24.7%.

In the case of `Cc1occc(=O)c1O`, the activation was inactive: -3.85%. `COc1cccc(C=NC=Nc2cccc(OC)c2)c1`: the activation is inactive: 10.1%. Regarding `C[N+](C)(CCCCCC[N+](C)(C)CCCN1C(=O)c2cccc3cccc(c23)C1=O)CCCN1C(=O)c2cccc3cccc(c23)C1=O`, the activation is inactive: -53.8%. As to `C[C@H](NC[C@H](O)CP(=O)(O)CC1CCCCC1)c1ccc(Cl)c(Cl)c1`, the activation is inactive: -12.9% and inactive: -5.46%. In the case of `CC(C)=CC1C(CO)C1(C)C` (configuration not stated), the activation was inactive: -1.61%. As to `CC(C)n1cnc2c(NCc3ccccc3)nc(NCCO)nc21`, the activation is inactive: 3.46%. Regarding `Nc1nc2c(ncn2COCCO)c(=O)[nH]1`, the activation was inactive: -7.27% and inactive: 3.82% and inactive: -11.9%. As to `CN(C)c1nc(-c2cccc(NS(C)(=O)=O)c2)nc2ccccc12`, the activation is inactive: 0.3%. `COC(=O)C1=C(C(=O)OC)[C@]2([C@H]3C/C=C\CN[C@@H](Cc4ccccc4)C(=O)N3Cc3ccccc3)C=C[C@H]1O2`: the activation is inactive: -9.39%. Take `O=Nc1ccc(/C=C/c2ccnc3ccccc23)cc1`: the activation is inactive: -6.53%. With `NC(=O)n1c(O)c(C(=O)c2cccs2)c2cc(Cl)ccc21`, the activation was inactive: -20.6%. As to `COCC(=O)N1CCC2(CC1)CCN(c1ccc(-c3ccccc3)cc1)CC2`, the activation is inactive: -15.6%.
